{"source": "the supplement of paper PMC8728848", "binders": {"B1": {"name": "MGL2 (Mus musculus), Q8JZN1 (protein)", "chain": "MTMRYENFQNLEREEKNQEMRNGDKKGGMESPKFALIPSQSFLWRILSWTHLLLFSLGLSLLLLVVISVIGSQNSQLRRDLGTLRAILDNTTSKIKAEFQSLDSRADNFEKGISSLKVDVEDHRQELQAGRDLSQKVTSLESTLEKREQALKTDLSDLTDHVQQLETDLKALTCQLANLKNNGSEVACCPLHWTEHEGSCYWFSESEKSWPEADKYCRLENSHLVVVNSLEEQNFLQNRLANVLSWMGLTDQNGPWRWVDGTDFDKGFKNWRPLQPDNWHGHMLGGGEDCAHFSYDGRWNDDVCQRHYHWICETELGKASSAHSPQLIASVP"}}, "assay_in_all_cases": "glycan array binding signal (z-score within array); higher = stronger binding", "conditions_in_all_cases": "glycan notation: IUPAC condensed, linker removed", "key": {"[1]": {"target": "Fuc(a1-2)Gal(b1-4)[Fuc(a1-3)]GlcNAc", "how_it_was_run": "(§1)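 The binding signal is a Z-score computed within each array and averaged over linkers. Arrays of the same protein sequence at different concentrations or buffers were also averaged together. Data originate from 3228 arrays in the Consortium for Functional Glycomics database, kept only where the protein sequence was available.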"}, "[2]": {"target": "Fuc(a1-2)Gal(b1-4)[Fuc(a1-3)]GlcNAc(b1-2)Man(a1-3)[Fuc(a1-2)Gal(b1-4)[Fuc(a1-3)]GlcNAc(b1-2)Man(a1-6)]Man(b1-4)GlcNAc(b1-4)[Fuc(a1-6)]GlcNAc", "how_it_was_run": "as §1"}, "[3]": {"target": "Fuc(a1-2)Gal(b1-4)[Fuc(a1-3)]GlcNAc(b1-2)[Fuc(a1-2)Gal(b1-4)[Fuc(a1-3)]GlcNAc(b1-4)]Man(a1-3)[Fuc(a1-2)Gal(b1-4)[Fuc(a1-3)]GlcNAc(b1-2)Man(a1-6)]Man(b1-4)GlcNAc(b1-4)GlcNAc", "how_it_was_run": "as §1"}, "[4]": {"target": "Fuc(a1-2)Gal(b1-4)[Fuc(a1-3)]GlcNAc(b1-3)Gal(b1-4)[Fuc(a1-3)]GlcNAc", "how_it_was_run": "as §1"}, "[5]": {"target": "Fuc(a1-2)Gal(b1-4)[Fuc(a1-3)]GlcNAc(b1-3)Gal(b1-4)[Fuc(a1-3)]GlcNAc(b1-3)Gal(b1-4)[Fuc(a1-3)]GlcNAc", "how_it_was_run": "as §1"}, "[6]": {"target": "Fuc(a1-2)Gal(b1-4)[Fuc(a1-3)]GlcNAc(b1-3)GalNAc", "how_it_was_run": "as §1"}, "[7]": {"target": "Fuc(a1-2)Gal(b1-4)[Fuc(a1-3)]GlcNAc(b1-3)[Neu5Ac(a2-6)Gal(b1-4)GlcNAc(b1-6)]Gal(b1-4)Glc", "how_it_was_run": "as §1"}, "[8]": {"target": "Fuc(a1-2)Gal3S(b1-4)GlcNAc", "how_it_was_run": "as §1"}, "[9]": {"target": "Fuc(a1-2)Gal6S(b1-3)GlcNAc", "how_it_was_run": "as §1"}, "[10]": {"target": "Fuc(a1-2)Gal6S(b1-3)GlcNAc6S", "how_it_was_run": "as §1"}, "Fuc(a1-2)Gal6S(b1-4)Glc": {"target": "Fuc(a1-2)Gal6S(b1-4)Glc", "how_it_was_run": "as §1"}, "[11]": {"target": "Fuc(a1-2)Gal6S(b1-4)Glc6S", "how_it_was_run": "as §1"}, "Fuc(a1-2)[Gal(a1-3)]Gal": {"target": "Fuc(a1-2)[Gal(a1-3)]Gal", "how_it_was_run": "as §1"}, "[12]": {"target": "Fuc(a1-2)[Gal(a1-3)]Gal(b1-3)GalNAc", "how_it_was_run": "as §1"}, "[13]": {"target": "Fuc(a1-2)[Gal(a1-3)]Gal(b1-3)GalNAc(b1-3)Gal(a1-4)Gal(b1-4)Glc", "how_it_was_run": "as §1"}, "[14]": {"target": "Fuc(a1-2)[Gal(a1-3)]Gal(b1-3)GlcNAc", "how_it_was_run": "as §1"}, "[15]": {"target": "Fuc(a1-2)[Gal(a1-3)]Gal(b1-3)GlcNAc(b1-2)Man(a1-3)[Fuc(a1-2)[Gal(a1-3)]Gal(b1-3)GlcNAc(b1-2)Man(a1-6)]Man(b1-4)GlcNAc(b1-4)GlcNAc", "how_it_was_run": "as §1"}, "[16]": {"target": "Fuc(a1-2)[Gal(a1-3)]Gal(b1-3)GlcNAc(b1-2)Man(a1-3)[Fuc(a1-2)[Gal(a1-3)]Gal(b1-3)GlcNAc(b1-2)Man(a1-6)]Man(b1-4)GlcNAc(b1-4)[Fuc(a1-6)]GlcNAc", "how_it_was_run": "as §1"}, "[17]": {"target": "Fuc(a1-2)[Gal(a1-3)]Gal(b1-3)GlcNAc(b1-3)GalNAc", "how_it_was_run": "as §1"}, "[18]": {"target": "Fuc(a1-2)[Gal(a1-3)]Gal(b1-3)GlcNAc(b1-6)GalNAc", "how_it_was_run": "as §1"}, "[19]": {"target": "Fuc(a1-2)[Gal(a1-3)]Gal(b1-4)Glc", "how_it_was_run": "as §1"}, "[20]": {"target": "Fuc(a1-2)[Gal(a1-3)]Gal(b1-4)GlcNAc", "how_it_was_run": "as §1"}, "[21]": {"target": "Fuc(a1-2)[Gal(a1-3)]Gal(b1-4)GlcNAc(b1-2)Man", "how_it_was_run": "as §1"}, "[22]": {"target": "Fuc(a1-2)[Gal(a1-3)]Gal(b1-4)GlcNAc(b1-2)Man(a1-3)[Fuc(a1-2)[Gal(a1-3)]Gal(b1-4)GlcNAc(b1-2)Man(a1-6)]Man(b1-4)GlcNAc(b1-4)GlcNAc", "how_it_was_run": "as §1"}, "[23]": {"target": "Fuc(a1-2)[Gal(a1-3)]Gal(b1-4)GlcNAc(b1-2)Man(a1-3)[Fuc(a1-2)[Gal(a1-3)]Gal(b1-4)GlcNAc(b1-2)Man(a1-6)]Man(b1-4)GlcNAc(b1-4)[Fuc(a1-6)]GlcNAc", "how_it_was_run": "as §1"}, "[24]": {"target": "Fuc(a1-2)[Gal(a1-3)]Gal(b1-4)GlcNAc(b1-3)GalNAc", "how_it_was_run": "as §1"}, "[25]": {"target": "Fuc(a1-2)[Gal(a1-3)]Gal(b1-4)GlcNAc(b1-3)[Fuc(a1-2)[Gal(a1-3)]Gal(b1-4)GlcNAc(b1-6)]GalNAc", "how_it_was_run": "as §1"}, "[26]": {"target": "Fuc(a1-2)[Gal(a1-3)]Gal(b1-4)GlcNAc(b1-6)GalNAc", "how_it_was_run": "as §1"}, "[27]": {"target": "Fuc(a1-2)[Gal(a1-3)]Gal(b1-4)[Fuc(a1-3)]Glc", "how_it_was_run": "as §1"}, "[28]": {"target": "Fuc(a1-2)[Gal(a1-3)]Gal(b1-4)[Fuc(a1-3)]GlcNAc", "how_it_was_run": "as §1"}, "[29]": {"target": "Fuc(a1-2)[Gal(a1-3)]Gal(b1-4)[Fuc(a1-3)]GlcNAc(b1-3)GalNAc", "how_it_was_run": "as §1"}, "[30]": {"target": "Fuc(a1-2)[Gal(a1-4)]Gal(b1-4)GlcNAc", "how_it_was_run": "as §1"}, "[31]": {"target": "Fuc(a1-2)[GalNAc(a1-3)]Gal", "how_it_was_run": "as §1"}, "[32]": {"target": "Fuc(a1-2)[GalNAc(a1-3)]Gal(b1-3)GalNAc(a1-3)[Fuc(a1-2)]Gal(b1-4)GlcNAc", "how_it_was_run": "as §1"}, "[33]": {"target": "Fuc(a1-2)[GalNAc(a1-3)]Gal(b1-3)GalNAc(b1-3)Gal(a1-4)Gal(b1-4)Glc", "how_it_was_run": "as §1"}, "[34]": {"target": "Fuc(a1-2)[GalNAc(a1-3)]Gal(b1-3)GlcNAc", "how_it_was_run": "as §1"}, "[35]": {"target": "Fuc(a1-2)[GalNAc(a1-3)]Gal(b1-3)GlcNAc(b1-2)Man(a1-3)[Fuc(a1-2)[GalNAc(a1-3)]Gal(b1-3)GlcNAc(b1-2)Man(a1-6)]Man(b1-4)GlcNAc(b1-4)GlcNAc", "how_it_was_run": "as §1"}, "[36]": {"target": "Fuc(a1-2)[GalNAc(a1-3)]Gal(b1-3)GlcNAc(b1-2)Man(a1-3)[Fuc(a1-2)[GalNAc(a1-3)]Gal(b1-3)GlcNAc(b1-2)Man(a1-6)]Man(b1-4)GlcNAc(b1-4)[Fuc(a1-6)]GlcNAc", "how_it_was_run": "as §1"}}, "note": "The list shows a part of the results.", "data": [{"binder": "B1", "values": [{"measurement": "glycan array binding signal (z-score)", "setting": "[1]", "value": -0.225}, {"measurement": "glycan array binding signal (z-score)", "setting": "[2]", "value": 0.025}, {"measurement": "glycan array binding signal (z-score)", "setting": "[3]", "value": -0.047}, {"measurement": "glycan array binding signal (z-score)", "setting": "[4]", "value": -0.148}, {"measurement": "glycan array binding signal (z-score)", "setting": "[5]", "value": -0.198}, {"measurement": "glycan array binding signal (z-score)", "setting": "[6]", "value": -0.255}, {"measurement": "glycan array binding signal (z-score)", "setting": "[7]", "value": -0.136}, {"measurement": "glycan array binding signal (z-score)", "setting": "[8]", "value": -0.132}, {"measurement": "glycan array binding signal (z-score)", "setting": "[9]", "value": -0.223}, {"measurement": "glycan array binding signal (z-score)", "setting": "[10]", "value": 0.028}, {"measurement": "glycan array binding signal (z-score)", "setting": "Fuc(a1-2)Gal6S(b1-4)Glc", "value": -0.142}, {"measurement": "glycan array binding signal (z-score)", "setting": "[11]", "value": -0.022}, {"measurement": "glycan array binding signal (z-score)", "setting": "Fuc(a1-2)[Gal(a1-3)]Gal", "value": -0.115}, {"measurement": "glycan array binding signal (z-score)", "setting": "[12]", "value": -0.218}, {"measurement": "glycan array binding signal (z-score)", "setting": "[13]", "value": 0.126}, {"measurement": "glycan array binding signal (z-score)", "setting": "[14]", "value": -0.128}, {"measurement": "glycan array binding signal (z-score)", "setting": "[15]", "value": -0.255}, {"measurement": "glycan array binding signal (z-score)", "setting": "[16]", "value": -0.096}, {"measurement": "glycan array binding signal (z-score)", "setting": "[17]", "value": -0.183}, {"measurement": "glycan array binding signal (z-score)", "setting": "[18]", "value": 0.323}, {"measurement": "glycan array binding signal (z-score)", "setting": "[19]", "value": -0.222}, {"measurement": "glycan array binding signal (z-score)", "setting": "[20]", "value": -0.162}, {"measurement": "glycan array binding signal (z-score)", "setting": "[21]", "value": -0.22}, {"measurement": "glycan array binding signal (z-score)", "setting": "[22]", "value": -0.129}, {"measurement": "glycan array binding signal (z-score)", "setting": "[23]", "value": -0.164}, {"measurement": "glycan array binding signal (z-score)", "setting": "[24]", "value": -0.286}, {"measurement": "glycan array binding signal (z-score)", "setting": "[25]", "value": -0.22}, {"measurement": "glycan array binding signal (z-score)", "setting": "[26]", "value": -0.058}, {"measurement": "glycan array binding signal (z-score)", "setting": "[27]", "value": -0.146}, {"measurement": "glycan array binding signal (z-score)", "setting": "[28]", "value": -0.061}, {"measurement": "glycan array binding signal (z-score)", "setting": "[29]", "value": -0.252}, {"measurement": "glycan array binding signal (z-score)", "setting": "[30]", "value": -0.12}, {"measurement": "glycan array binding signal (z-score)", "setting": "[31]", "value": -0.218}, {"measurement": "glycan array binding signal (z-score)", "setting": "[32]", "value": -0.197}, {"measurement": "glycan array binding signal (z-score)", "setting": "[33]", "value": -0.149}, {"measurement": "glycan array binding signal (z-score)", "setting": "[34]", "value": -0.21}, {"measurement": "glycan array binding signal (z-score)", "setting": "[35]", "value": -0.276}, {"measurement": "glycan array binding signal (z-score)", "setting": "[36]", "value": -0.192}]}]}
